Test results taken from the supplement of paper PMC11417369.
± gives the standard deviation of the averaged measurements. The list shows a part of the results.

tested on: PfAP2-G AP2 domain (GST-tagged); test: gcPBM binding intensity (ln(normalized median fluorescence intensity)); higher = stronger DNA binding
In short: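 Binding intensity is defined as the maximum Masliner-normalised natural-log median intensity across replicate spots for either probe orientation. It was measured on an Agilent 4 × 180k array of primer-extended double-stranded 36-bp intergenic genomic probes and negative controls, to which GST-tagged P. falciparum DNA-binding domains made in E. coli were applied for 1 h in 1× PBS with 1% milk, 0.2 mg/ml BSA, 0.5% salmon testes DNA and 0.03% Triton X-100. Detection was by Alexa488 anti-GST antibody and scanning at 488 nm.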

Sequence	gcPBM binding intensity (ln)
ATATATATTTATATATATATATATATATATATGTAT [GTGCAC_negctrl_site220]	9.56 ± 0.2
GTCCAATAAGGAAGAGTGCAAAAATTAAATAATATA [GTGCAC_site9751]	10.3 ± 0.16
TAGTTATTTATATACACACACATACAGACAAATAAA [CACACA_site7577]	10.3 ± 0.26
TCTTAGATTATTTATTGTACTTATGCTTAAAAAATT [XGTACX_site3639]	11.3 ± 0.8
ATATTTTCTTTTTAAAGTACATATTTGATTACAATA [XGTACX_site8414]	11.1 ± 0.81
GAAAAAAAAGAAAAAACACACATATGATATATTTAT [CACACA_site1524]	9.55 ± 0.29
ATATATATATATATATGTACATATTTTTAATTATAA [XGTACX_site7444]	11.3 ± 0.79
AAGAAAATGAAAAAGTAAAAACATATATTAAATATA [TGCATGCA_negctrl_site123]	9.71 ± 0.15
TCGTAGTTACTATGGCAAGAAAATAAACGGTCTTGT [GTGCAC_negctrl_site684]	10.2 ± 0.23
ATTATAAATTAAAATACACACATATATACATAATAT [CACACA_site7337]	10.04 ± 0.064
TCTTTTTGTTCGTGTACACACATGAAATTTATAAAA [CACACA_site1619]	11.8 ± 1.1
AAGTATATACATATATGTACACATTGTCAGATAGAA [XGTACX_site1236]	11.4 ± 0.78
ATAGAATAATATTGTAGTACTAAAAATATTCATTTT [XGTACX_site6447]	11.4 ± 0.92
TCTATATATAAATATAAATATATATATATAATGTTA [TGCATGCA_negctrl_site92]	9.205 ± 0.092
TAAAAAACAAAACAGGTGCTATATAATTTTCATTTT	9.745 ± 0.078
AAAGAAATAAGGTGCACACATATACAGATATATATA [CACACA_site4399]	10.4 ± 0.47
ATATATTTGATTTACACACTTACAATGTATATAAAT [CACACA_site2993]	10.4 ± 0.26
CTCTTTTTTTGCAAAAGTACAAATGGGGATATATTT [XGTACX_site5813]	11.3 ± 0.71
TTAAATAAAAAAATAACACACATATAAATATATATG [CACACA_site3175]	9.87 ± 0.17
TTACATATTTTTTAACGTACATAAATATATATGTAT [XGTACX_site8406]	11.4 ± 0.79
ACTCAAACCTTTAGAGTGCAAAAAAAAAAAAAAAAA [GTGCAC_site9952]	9.89 ± 0.32
TTGTAAAAATTAATACATATATATATATATATATAT [CACACA_negctrl_site6]	9.9 ± 0.62

Sequence	gcPBM binding intensity (ln)
ATATGTTAAATTATTCGTACGTAAAAAAAAATGGAT [XGTACX_site3465]	11.3 ± 0.76
ATAATTATCATAGGATGTACATATTTATTTTGTATA [XGTACX_site7797]	11.2 ± 0.67
TAATTTCATCATATTTGTTCCTTCTCAAAATTTTTT [CACACA_negctrl_site217]	9.99 ± 0.099
GCATTATTTACCACAACACACAAATATTTACCAATC [CACACA_site2669]	10.5 ± 0.43
ACTATATATTTAATATGTACACATATTTCTGTCGAT [XGTACX_site6878]	11.5 ± 0.79
TTCCTAAGAATAATCAGTACACATAAAAAGAACATA [XGTACX_site7861]	11.4 ± 0.78
TTTTATATTTTTTGTGGTACATTTAGAGAACCAAAA [XGTACX_site1695]	11.4 ± 0.79
TGTAAGTTGATATAATGTACATGTTTGATTTTTTTT [XGTACX_site7687]	11.1 ± 0.58
TATTCATTTATAAGCTGTACACATTAATTTGAGCTA [XGTACX_site3616]	11.3 ± 0.87
ATTAGGATATATTAAAGTACTAATATAATACATTTT [XGTACX_site7386]	10.7 ± 0.42
ATATAGTATTAATTTGCATGTCATGTATTAGGTCGA [TGCATGCA_site540]	9.845 ± 0.021
CTTTTTTTAATATGCACACATATATTTTATATATTA [CACACA_site2077]	10.2 ± 0.11
AAAAAGGGTATTATTACACACACGTAAATATTAATA [CACACA_site101]	10.1 ± 0.18
AGATTTATACAAATATGTACACACTAAATATATATT [XGTACX_site864]	11.5 ± 0.74
CAACAAAAATTATTTACACACAAAAGGCAAGGAAAT [CACACA_site1971]	10.5 ± 0.28
TAACTAAGGAATAATACACACAGAAATATAGATTTA [CACACA_site6293]	9.93 ± 0.13
TCTATTTTCTTATGAATGCACTAATTTATAAAACGT	10.1 ± 0.13
CTATTATAATATTTTACACACCATGTAAGATATATA [CACACA_site7492]	9.935 ± 0.064
TTTATTTTATCATTTGCACACGCACCCAGACATAAA [CACACA_site4347]	10.6 ± 0.57
TTTTTTCATTAGAAAACATGCAAATGTTTTTCACTT [TGCATGCA_site127]	9.71 ± 0.2
TTTATAAACAAATGAACACACAAACATATATATATA [CACACA_site5713]	10.04 ± 0.078
ATTCTTTTTTTTTGGAAATGTATTTTTATGTTTTGT [TGCATGCA_negctrl_site426]	9.81 ± 0.085
